Where two headings read alike, the source gives them in different places. These are yes or no findings as the source states them, for the method shown. For some assays here: Binding seen in cells or lysates may run through a third protein. Some entries that bind do so weakly or less than the wild type. For some assays here: Sequences can lack the tags named with a protein.
Experiments:
[1] = biological target: ScErg11-MYC (S. cerevisiae) (UniProt P10614); assay: co-IP; whole cell lysates of Scarv1 cells co-expressing Arv1-HA and Erg11-MYC; 1 mg protein, anti-HA (16B12) or anti-MYC (9E10) 4 hr at 4°C, Protein A agarose; washes with 10 mM HEPES pH 7.5, 200 mM NaCl, 5 mM EDTA, 0.1% Nonidet P-40; western
[2] = biological target: CaErg11-MYC (C. albicans) (UniProt P10613); assay: as above
[3] = biological target: ScArv1-HA (S. cerevisiae) (UniProt Q06541); assay: as above
[4] = biological target: ScErg11 (split-ubiquitin two-hybrid fusion) (S. cerevisiae) (UniProt P10614); assay: two-hybrid; split-ubiquitin two-hybrid in S. cerevisiae L40; Cub-PLV and NubG fusions; growth on Trp- Leu- His- plates after 48 hr and >3-fold β-galactosidase activity over the negative control
[5] = biological target: CaErg11 (split-ubiquitin two-hybrid fusion) (C. albicans) (UniProt P10613); assay: as above
[6] = biological target: CaErg11-MYC (C. albicans) (UniProt P10613); assay: co-IP; whole cell lysates of Scarv1 cells co-expressing Arv1-HA and Erg11-MYC; 1 mg protein, anti-HA (16B12) or anti-MYC (9E10) 4 hr at 4°C, Protein A agarose; washes with 10 mM HEPES pH 7.5, 200 mM NaCl, 5 mM EDTA, 0.1% Nonidet P-40; western; remark: listed apart in the source

Amino acid sequences for entries named in this document (tags omitted). A change or cut given only in a name is not applied to a line headed by its entry.
UniProt P10614: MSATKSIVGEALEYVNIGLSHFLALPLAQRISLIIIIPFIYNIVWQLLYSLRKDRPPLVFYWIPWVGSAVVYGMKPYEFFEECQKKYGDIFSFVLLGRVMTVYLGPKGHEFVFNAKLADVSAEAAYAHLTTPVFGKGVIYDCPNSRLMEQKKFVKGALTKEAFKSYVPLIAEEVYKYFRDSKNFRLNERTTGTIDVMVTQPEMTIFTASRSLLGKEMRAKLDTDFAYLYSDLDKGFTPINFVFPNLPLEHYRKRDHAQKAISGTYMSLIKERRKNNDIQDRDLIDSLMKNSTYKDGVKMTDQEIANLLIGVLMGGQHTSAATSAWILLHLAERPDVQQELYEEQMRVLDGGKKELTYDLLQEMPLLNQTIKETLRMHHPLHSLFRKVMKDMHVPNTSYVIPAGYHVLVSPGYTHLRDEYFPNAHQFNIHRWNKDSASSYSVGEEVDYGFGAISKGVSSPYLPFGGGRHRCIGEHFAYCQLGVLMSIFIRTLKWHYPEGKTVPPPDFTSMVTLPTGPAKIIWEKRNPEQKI
UniProt P10613: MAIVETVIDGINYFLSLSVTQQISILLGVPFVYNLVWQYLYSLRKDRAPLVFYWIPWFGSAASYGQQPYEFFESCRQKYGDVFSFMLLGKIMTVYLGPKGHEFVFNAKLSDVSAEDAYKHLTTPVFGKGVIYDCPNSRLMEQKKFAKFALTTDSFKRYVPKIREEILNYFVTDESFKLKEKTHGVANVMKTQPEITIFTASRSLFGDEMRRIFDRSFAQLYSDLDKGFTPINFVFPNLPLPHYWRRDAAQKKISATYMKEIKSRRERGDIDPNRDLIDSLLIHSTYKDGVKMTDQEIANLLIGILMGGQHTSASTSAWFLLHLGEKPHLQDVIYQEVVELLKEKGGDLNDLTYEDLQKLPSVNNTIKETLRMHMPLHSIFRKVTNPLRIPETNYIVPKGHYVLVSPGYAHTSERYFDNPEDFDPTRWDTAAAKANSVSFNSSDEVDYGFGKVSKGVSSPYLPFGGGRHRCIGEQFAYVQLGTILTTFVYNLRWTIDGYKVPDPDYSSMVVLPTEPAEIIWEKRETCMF
UniProt Q06541: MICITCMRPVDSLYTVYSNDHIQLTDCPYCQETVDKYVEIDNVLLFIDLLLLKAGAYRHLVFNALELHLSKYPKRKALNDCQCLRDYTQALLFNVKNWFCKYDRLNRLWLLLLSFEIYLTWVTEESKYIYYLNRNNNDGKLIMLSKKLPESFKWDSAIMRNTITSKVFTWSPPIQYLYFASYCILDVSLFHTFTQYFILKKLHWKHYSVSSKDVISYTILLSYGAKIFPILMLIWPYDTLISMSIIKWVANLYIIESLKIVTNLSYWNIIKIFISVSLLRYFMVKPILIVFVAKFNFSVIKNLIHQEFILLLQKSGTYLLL

## ScArv1^C3A-HA (from UniProt Q06541 1-321)
[1]
  binding: binds

## CaArv1^Y38A-HA (from UniProt Q5ANH2 1-296)
[2]
  binding: binds

## ScErg11-MYC (from UniProt P10614 1-530) (enzyme)
[3]
  binding: binds

## ScArv1^C3A (split-ubiquitin two-hybrid fusion) (from UniProt Q06541 1-321)
[4]
  binding: binds

## ScArv1^Y37A (split-ubiquitin two-hybrid fusion) (from UniProt Q06541 1-321)
[4]
  binding: binds

## CaArv1^C28A (split-ubiquitin two-hybrid fusion) (from UniProt Q5ANH2 1-296)
[5]
  binding: no binding

## ScArv1^Y37A-HA (from UniProt Q06541 1-321)
[1]
  binding: binds

## CaArv1^C3A-HA (from UniProt Q5ANH2 1-296)
[2]
  binding: binds

## ScArv1-HA (from UniProt Q06541 1-321)
[1]
  binding: binds

## CaArv1^Y38A (split-ubiquitin two-hybrid fusion) (from UniProt Q5ANH2 1-296)
[5]
  binding: binds

## full-length ScArv1 (split-ubiquitin two-hybrid fusion) (from UniProt Q06541 1-321)
[4]
  binding: binds

## ScArv1^C27A (split-ubiquitin two-hybrid fusion) (from UniProt Q06541 1-321)
[4]
  binding: no binding

## CaArv1^C3A (split-ubiquitin two-hybrid fusion) (from UniProt Q5ANH2 1-296)
[5]
  binding: binds

## ScArv1^C27A-HA (from UniProt Q06541 1-321)
[1]
  binding: no binding

## CaArv1^C28A-HA (from UniProt Q5ANH2 1-296)
[2]
  binding: no binding

B1: CaArv1-HA (protein, UniProt Q5ANH2 1-296)
chain: MICIECGYSNIDCLYSKYKSDYIKLSVCPECNKIADKYIEYDSVILFLDILLLKRQAYKHLAYNLTEMEMEIGSSTNFHINDNTNFKFFHTYRKLMKLIFMILSFEVYLTWANEEKLLIHSQLINLIFNQSVVYQYLFFIIKSSLENLILNLSLQLILRLGYKWGQGPQKINGNIRDKELFGYKTSVLLVTTMVSGSIRLFPILMFIWPYDNISITKPLINLIAFINIVEALRVVTSLGYVELILSLAFSIVIRNIVSKSLLVLIVRLFLDFNFTEVYYNEMYQLYSQIQTYIRWI
[6]
  binding: binds

B2: full-length CaArv1 (split-ubiquitin two-hybrid fusion) (protein, UniProt Q5ANH2 1-296)
chain: B1 chain
[5]
  binding: binds

— paper PMC7367482, “An Erg11 lanosterol 14-α-demethylase-Arv1 complex is required for Candida albicans virulence” (PLoS ONE, 2020)
